From PubChem BioAssay AID651820 (National Center for Advancing Translational Sciences (NCATS), 2012)
The whole screen tested about 340,000 compounds, of which about 12,000 (3.5%) were called active. Inconclusive results, whose numbers are uncertain, are shown with a selection of clear calls. Calls follow the shape of the dose curve; as a rule, active = well fitted inhibition curve with a large enough effect; inconclusive = small, poorly fitted or top-dose-only effect, or another doubt; inactive = no such curve, though single readings can be large or run the other way. Potencies of inconclusive entries are left out as doubtful fits.

test: qHTS Assay for Inhibitors of Hepatitis C Virus (HCV); details: Huh7.5.1 HCVcc-Cre (HCVcc is cell-culture hepatitis C virus) infection, luciferase reporter, 44 h; activity change, negative = inhibition: at 41.8 µM (top of the series) unless noted
Method in brief: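 Compounds are dispensed onto cells plated 4 h earlier at 1,000 per well, with HCVcc-Cre virus (about 0.5 moi) added next. Following 44 h of culture, luminescent signal is measured for 15 sec after 15 min with substrate at room temperature.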
% is scaled to controls: 0 for no effect and ±100 for the full control effect; potency is read from the fitted curve at half-maximal effect; tags tell the direction and shape of the fitted curve.

Row | SMILES | Potency | activity change, negative = inhibition
1 | CCN1C(=O)c2cccc3c(S(=O)(=O)NCc4cccnc4)ccc1c23 | inconclusive [inhibitor, single point] | –
2 | CCOC(=O)c1sc(=S)n2c1[nH]c(=O)c1ccc(C(=O)OC)cc12 | – | inactive: -9.87%
3 | O=C1/C(=C\c2cc([N+](=O)[O-])ccc2O)SC(=S)N1Cc1ccc(Cl)cc1 | inconclusive [inhibitor, single point] | –
4 | CN(C)S(=O)(=O)c1ccc2c(c1)c(=O)c(C(=O)NCCCN1CCCCCC1)cn2C | inactive | –
5 | S=C(NCCCCNC(=S)NCc1ccccc1)NCc1ccccc1 | – | inactive: -8.66%
6 | Cc1c(Cl)cccc1-c1ccc(C(=O)N2CCN(c3ccc([N+](=O)[O-])cc3)CC2)o1 | inconclusive [inhibitor, partial curve, poor fit] | –
7 | COc1ccc(OCCSc2ccc(S(=O)(=O)N3CCCC3)cn2)cc1 | active: 11.2 µM | –
8 | CC(=O)c1ccc(N=Nc2ccc(N(C)C)cc2)cc1 | – | inactive: 1.03%
9 | CN(Cc1cccs1)C(=O)CCCc1c[nH]c2ccccc12 | – | inactive: 17.9%
10 | Cc1cc(OCC(=O)Nc2ccc(N3CCCC3)cc2)cc(C)c1Cl | inconclusive [inhibitor, partial curve] | –
11 | O=C(Nc1ncc(Cc2cccc([N+](=O)[O-])c2)s1)c1ccco1 | inconclusive [inhibitor, partial curve] | –
12 | O=c1[nH]c(SCc2nc3ccccc3c(=O)n2-c2ccccc2C(F)(F)F)nc2ccccc12 | – | inactive: -0.637%
13 | O=C(Nc1ccc2ccccc2c1)Nc1ccc2snnc2c1 | inconclusive [inhibitor, single point] | –
14 | CCOC(=O)N1CCN(C(=O)C2CCN(S(=O)(=O)c3c(C)cc(C)cc3C)CC2)CC1 | – | inactive: -13.7%
15 | CCc1cc(C(=O)N2CCCC(C(=O)c3ccc(OC)c(F)c3)C2)n(C)n1 (stereo not drawn) | inconclusive [inhibitor, single point] | –
16 | Nc1c(C(=O)Nc2ccc(Cl)cc2)sc2nc(N3CCOCC3)c3c(c12)CCCC3 | inconclusive [inhibitor, partial curve] | –
17 | Oc1ccc(Cl)cc1-c1cc(-c2ccccc2)n[nH]1 | active: 10 µM | –
18 | COc1ccc(NC(=O)c2cc(-c3ccco3)on2)c(OC)c1 | inconclusive [inhibitor, single point] | –
19 | CCOc1cc(/C=N\NC(=O)Cc2ccccc2)ccc1OCC(=O)Nc1ccc(C)c(C)c1 | inconclusive [inhibitor, single point] | –
20 | COc1ccc(N(CC(=O)N2CCN(c3ccc(Cl)cc3)CC2)S(=O)(=O)c2c(C)noc2C)cc1 | active: 11.2 µM | –
21 | COc1ccc(/C(N)=N/OC(=O)CCC2CCCC2)cc1OC | – | inactive: 1.57%
22 | Brc1c(-c2ccccc2)nc2n1Cc1ccccc1-2 | inconclusive [inhibitor, single point] | –
23 | COc1cccc(-n2c(C)nc3ccccc3c2=O)c1 | – | inactive: 13%
24 | CSc1ccccc1NC(=O)COc1ccc(Cl)cc1C | inconclusive [inhibitor, partial curve] | –
25 | O=[N+]([O-])c1ccccc1S(=O)(=O)N1CCCC(C(F)(F)F)C1 (stereo not drawn) | – | inactive: 30.1%

Row | SMILES | Potency | activity change, negative = inhibition
26 | Cc1ccc([N+](=O)[O-])cc1N/C=C1\CCCCC1=O | inconclusive [inhibitor, single point] | –
27 | Cc1ccc(C(=O)N/C(=C\c2cccs2)C(=O)NCCc2c[nH]c3ccccc23)cc1C | inconclusive [inhibitor, partial curve] | –
28 | CCCNC(=O)c1noc2c1CCc1cc(OC)ccc1-2 | inconclusive [inhibitor, single point] | –
29 | Cc1ccc(C(=O)NC2CCC(C)CC2)s1 (stereo not drawn) | inconclusive [inhibitor, single point] | –
30 | CN1CCN(/N=C/c2ccc(Cl)c(Cl)c2)CC1 | inconclusive [inhibitor, partial curve] | –
31 | O=C(O)c1cc2cccc(S(=O)(=O)N3CCCCC3)c2cc1O | – | inactive: 18%
32 | Cc1cc(=O)[nH]c(SCC(=O)Nc2ccc(S(N)(=O)=O)cc2)n1 | – | inactive: 16.7%
33 | O=C(NCC(c1ccco1)N1CCOCC1)c1ccc([N+](=O)[O-])cc1 (stereo not drawn) | – | inactive: 19.7%
34 | CC(CC12CC3CC(CC(C3)C1)C2)NCc1ccccc1O (stereo not drawn) | inconclusive [inhibitor, single point] | –
35 | COc1ccccc1C(=O)NCC(=O)N/N=C/c1cc(Br)ccc1OC(=O)/C=C\c1ccco1 | inconclusive [inhibitor, single point] | –
36 | Cc1ccc(OC(C)C(=O)N(Cc2cccs2)C2CCS(=O)(=O)C2)cc1C (stereo not drawn) | – | inactive: 9.12%
37 | COc1ccc(Br)cc1Cn1nnc(C(=O)Nc2ccc3c(c2)OCCO3)c1N | inconclusive [inhibitor, partial curve] | –
38 | Cc1ccc(N/C(N)=N/c2nc(C)cc(C)n2)cc1 | – | inactive: 10.5%
39 | CCC(C)(O)C(=O)OC1C(=O)OC2CC3C(C)=CC(=O)C(O)C3(C)C3C4(O)OCC23C1C(C)C4O (stereo not drawn) | inconclusive [inhibitor, full curve] | –
40 | CN(C(=O)CSc1cc(Cl)ccc1Cl)C1CCS(=O)(=O)C1 (stereo not drawn) | – | inactive: 0.28%
41 | COc1ccc(C(=O)CN2CCOCC2)cc1F | – | inactive: 22.8%
42 | O=C(NC1CCCC1)c1cc2c(ccc3ccccc32)o1 | inconclusive [inhibitor, single point] | –
43 | Cc1ccc(N(C)/N=C/c2ccc(Cl)cc2Cl)nn1 | – | inactive: 0.656%
44 | CCOC(=O)c1c(NC(=O)C(C)S(=O)(=O)c2cn(CC)c3ccccc23)sc2c1CCCC2 (stereo not drawn) | inconclusive [inhibitor, partial curve] | –
45 | Cc1oc(C)c2c(=O)ccc3c(c12)OC(N)=C(C#N)C3c1ccccc1 (stereo not drawn) | inconclusive [inhibitor, single point] | –
46 | N#C/C(=C/c1ccc(N2CCCCC2)cc1)c1cccc(F)c1 | inconclusive [inhibitor, partial curve] | –
47 | N#CCCn1nc(-c2ccc(Cl)cc2)cc1Nc1ccccc1NC(=O)C(F)(F)F | – | inactive: -9.11%
48 | O=C(Nc1ccc2c(c1)OCO2)N1CCOCC1 | – | inactive: 1.17%
49 | CCc1nnc2n1N=C(c1ccc(OC)cc1)CS2 | inconclusive [inhibitor, single point] | –
50 | CC(C)(CC(=O)O)CC(=O)N1CCCN(c2nccc(C(F)(F)F)n2)CC1 | – | inactive: 6.25%

Row | SMILES | Potency | activity change, negative = inhibition
51 | COc1cccc2sc(N3CCN(C(=O)c4ccc([N+](=O)[O-])o4)CC3)nc12 | active: 7.94 µM | –
52 | COc1cc(OC)c(NC2=CC(=O)C(=O)c3ccccc32)cc1Cl | active: 5.01 µM | –
53 | CCNc1nc(N)c(C(=C(C#N)C#N)c2ccccc2)s1 | inconclusive [inhibitor, single point] | –
54 | Cc1ccccc1NC(=O)Nc1cc(S(N)(=O)=O)ccc1C | – | inactive: -12.1%
55 | O=C(Cn1cnc2c(nnn2Cc2ccc(F)cc2)c1=O)NCc1ccc(F)cc1 | inconclusive [inhibitor, partial curve] | –
56 | CCOc1cc(-c2nc(-c3ccccc3)c(-c3cc([N+](=O)[O-])ccc3C)[nH]2)ccc1O | inconclusive [inhibitor, single point] | –
57 | CC1CCc2[nH]c3ccc(C(=O)N(C)CC(=O)Nc4ccc(F)cc4)cc3c2C1 (stereo not drawn) | inconclusive [inhibitor, single point] | –
58 | Cc1cccc(OCCOC(=O)c2ccc(F)c(S(=O)(=O)N3CCOCC3)c2)c1 | inconclusive [inhibitor, single point] | –
59 | CCNC(=S)N/N=C/c1cn(Cc2ccc(F)cc2)c2ccccc12 | inconclusive [inhibitor, full curve] | –
60 | Cc1cccc(CN2CCc3c(OCC(=O)N4CCCc5ccccc54)cccc3C2=O)c1 | inconclusive [inhibitor, single point] | –
61 | O=C1NC(=NCc2ccccc2)NC1(c1ccccc1)c1ccccc1 | inconclusive [inhibitor, single point] | –
62 | CCn1c(C(=O)NCCCc2ccccc2)cc2sccc21 | inconclusive [inhibitor, single point] | –
63 | CC1CN(c2oc(COc3ccc(Cl)cc3Cl)nc2C#N)CC(C)O1 (stereo not drawn) | inconclusive [inhibitor, full curve] | –
64 | Cc1[nH]nc2ncc(C(=O)c3cc(F)ccc3O)cc12 | inconclusive [inhibitor, single point] | –
65 | CC1=NN(c2ccc([N+](=O)[O-])cc2)C(c2ccccc2)C1 (stereo not drawn) | inconclusive [inhibitor, partial curve] | –
66 | Cc1nc2sc(-c3ccccc3)cc2c(=O)n1N | – | inactive: -22.7%
67 | COc1ccc(/C=C/C(O)=C2/C(=O)N(C)C3(C)CC2c2ccccc2O3)cc1 (stereo not drawn) | – | inactive: -17%
68 | CC(C)c1ccc(/C=N/NC(=O)c2c(Cl)cnn2C)cc1 | inconclusive [inhibitor, single point] | –
69 | CCc1ccc(C(C)NC(=S)NC2CCCCC2)cc1 (stereo not drawn) | inconclusive [inhibitor, single point] | –
70 | Cc1cc2oc(=O)cc(Cn3ccnc3)c2cc1Cl | – | inactive: 8.24%
71 | O=C(CSc1c2c(nc3cc(Cl)ccc13)CCCC2)NCCCN1CCOCC1 | inconclusive [inhibitor, single point] | –
72 | CCCc1nc2c(sc3nc4c(cc32)COC(C)(C)C4)c(=O)n1Cc1ccco1 | inconclusive [inhibitor, partial curve] | –
73 | CSCC[C@H](NC(=O)C1CCN(S(=O)(=O)c2ccccc2)CC1)C(=O)NC1CC1 | inconclusive [inhibitor, single point] | –
